± gives the standard deviation of the averaged measurements. Some of the results follow.
Each sequence was assayed on PfAP2-EXP AP2 domain (GST-tagged) (assay: gcPBM binding intensity (ln(normalized median fluorescence intensity)); higher = stronger DNA binding).
How it was run: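 GST-fused DNA-binding domains of P. falciparum, expressed in E. coli, were applied at about 25 μg on average for 1 h to an Agilent 4 × 180k array of primer-extended double-stranded 36-bp intergenic genomic probes and negative controls. Binding intensity is the highest Masliner-normalised natural-log median intensity across replicate spots of either probe orientation, measured with Alexa488 anti-GST antibody and a 488 nm scan.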

Row | Sequence | gcPBM binding intensity (ln)
1 | TATTTGAAAACATAGGTGCACATTATTTTATAATCT [GTGCAC_site9947] | 9.13 ± 0.65
2 | GAAAGAATAAAATTTACACACATATAAATATACATA [CACACA_site7125] | 8.27 ± 0.41
3 | AGGAGGATGCATATGGCACACATTATGAAACTGTCG [CACACA_site299] | 8.92 ± 0.71
4 | TATATATATATATGTAGTACTCAATATTGTAGATTA [XGTACX_site3856] | 10.1 ± 0.2
5 | AAATATATGTATATATGTACATATGTGTGCTATCAT [XGTACX_site1604] | 8.71 ± 0.28
6 | TAATTTTTTTTTAATTGTACATGTGAATATATTTCA [XGTACX_site4115] | 8.4 ± 0.42
7 | GTTTACATTTTAAGAAGTACAAAATTTATGGTTAAA [XGTACX_site450] | 8.59 ± 0.45
8 | GAAAAAACGAAAAAAATACACACCTGAAAAGATATG [CACACA_site887] | 8.62 ± 0.43
9 | ATACATACAAAAATTTGTACATATTTCCAATAATGT [XGTACX_site2658] | 8.41 ± 0.35
10 | AAATTTCCATTTGGGTGTACATGTGAAACTACAAAG [XGTACX_site208] | 8.85 ± 0.39
11 | GCCATAATATGACATACACACACAAAAAAAAAAAAA [CACACA_site8353] | 8.45 ± 0.28
12 | AAACAATTGAATAAATGTACAGATACATTTTTTTAA [XGTACX_site5386] | 8.23 ± 0.36
13 | TATTTATCTATTTTGTTATATAATAAAATAAAATAA [CACACA_negctrl_site281] | 8.13 ± 0.37
14 | AAAAATAAACAAAATTGTACACATTACATACATATA [XGTACX_site966] | 8.59 ± 0.36
15 | AGGTGCAAAAATAAAACATGCAAAAATAAAAATGAA [TGCATGCA_site502] | 9.15 ± 0.44
16 | TAATAAAAAATATATACACACAAATAAATAAATAAA [CACACA_site4037] | 8.75 ± 0.62
17 | AATAGTCGTGTGCATACACACCTTAACTATAATATA [CACACA_site6636] | 8.46 ± 0.29
18 | AATAATTAAATAAGAGTGCATGAAACAGGAAATTTC | 9.1 ± 0.33
19 | TTAGCAACTATTACTACACACATTTTTATATAACTT [CACACA_site6762] | 8.58 ± 0.48
20 | TATTGTTAAAATGAATAATTAAAACAGTAATGAATA [XGTACX_negctrl_site170] | 8.37 ± 0.35
21 | AAGAAATAAAGCAAAACATGCACTCGAAAATGTTTT [TGCATGCA_site1014] | 8.74 ± 0.33
22 | CGCATGCAATGTTAATGTACATATATATATATATGT [XGTACX_site3316] | 9.395 ± 0.049

Row | Sequence | gcPBM binding intensity (ln)
23 | ATGTCTAATTTTGATGCACACTTTTGTGCAATTAAA [CACACA_site5589] | 8.45 ± 0.2
24 | TATATATGTTTTTATGTACACACTTTTAACCTAAGA [CACACA_site1149] | 8.71 ± 0.36
25 | ATTTATTGACTATTTACACACATATTTATTAAAATA [CACACA_site4980] | 8.79 ± 0.42
26 | TACGCTCCCAGACACACACACACACCGATATAATAT [CACACA_site8098] | 8.81 ± 0.49
27 | TATTATATTATGTGATGTACATATTTATATAGGCCC [XGTACX_site4746] | 8.68 ± 0.5
28 | TATTACATACCTTATTGTACAAATTATATATTAAAG [XGTACX_site7334] | 8.62 ± 0.37
29 | ATTCAGTTATATAATACACACATATATTGACATTAT [CACACA_site2723] | 8.56 ± 0.43
30 | ACAGTATCTGGTAGCTGTACGAGTCGTAGAGAGTAG [XGTACX_site2041] | 9.07 ± 0.39
31 | TAGTATAATATGAACACACACACACGCACAAAAAAA [CACACA_site7035] | 8.89 ± 0.51
32 | TGTAAGCACATACAAACACACAACATTATTTTTATC [CACACA_site2186] | 8.66 ± 0.4
33 | ATCGTTATATAAAAATGTACTTATAAATTGTATACA [XGTACX_site6664] | 8.52 ± 0.38
34 | CAACATTTGATAAACACACAGAAGTATAAATATATA [CACACA_site2365] | 8.61 ± 0.29
35 | AAAGGAAAAATCCAAGTGCATTATTATTTTCACAAA [GTGCAC_site9995] | 8.55 ± 0.16
36 | TTTTTTTTTTTTTGATGTACAATTAATATTATAAAA [XGTACX_site6969] | 8.49 ± 0.48
37 | CATTTTAAAGAAAATACACACAAAAATAGATATATA [CACACA_site6773] | 8.66 ± 0.38
38 | AGTAATAAATAATTTACACACATATTATATCATCAC [CACACA_site1890] | 8.56 ± 0.27
39 | ATTTCTTTTTTATTGAGTACATATGACCATGTTCAA [XGTACX_site5365] | 8.95 ± 0.29
40 | GAAAAAAATGAAATTAGTACTTATCTTAAATTTTTA [XGTACX_site1018] | 7.96 ± 0.33
41 | AAAAATATATAATAAAGTACACATAAATGAATAAAT [XGTACX_site329] | 8.9 ± 0.12
42 | TGATAACCAAAAAGGGGTACATACACAAAAAAATAC [XGTACX_site1254] | 9.12 ± 0.49
43 | AACAACATTTGATAAACACACAGAAGTATAAATATA [CACACA_site5327] | 8.72 ± 0.42
44 | TACTTATTAGACTATTGTACATACATTATTAATATT [XGTACX_site7849] | 8.73 ± 0.31

Row | Sequence | gcPBM binding intensity (ln)
45 | TAAAAAATTAAGCAACGTACAAATGAAAAGTATAAT [XGTACX_site1058] | 9.2 ± 0.5
46 | TAACAATAACTTTATACACACATAATATAAATATAT [CACACA_site7635] | 8.23 ± 0.56
47 | TAAAATTTTAACAAAAAAAAAAAAAAAAAAAGAAAA [CACACA_negctrl_site1335] | 8.15 ± 0.6
48 | ATAACAAAATAATAATGTACGTATAAATATAATTTA [XGTACX_site6049] | 8.57 ± 0.4
49 | ATAAAGAAAAATAGAAGTACATATATGCATGTTAAT [XGTACX_site4480] | 9.14 ± 0.5
50 | AACAATAAAAATAATTGTACAAGTCTAAAAAAAATT [XGTACX_site20] | 8.51 ± 0.31
51 | TACGTATTATAAATATGTACATATAATATGTATATA [XGTACX_site468] | 8.22 ± 0.23
52 | TATATCATCATGTATGTACACACATACATATATTAT [CACACA_site8387] | 8.51 ± 0.35
53 | CAAAAACATACCTACACACACAATATGTATATATAA [CACACA_site3514] | 8.37 ± 0.48
54 | TTGTTATGTTTTATTTGTACGTAGGTTTCTATCAAA [XGTACX_site7636] | 8.87 ± 0.5
55 | AAAATATAGTAACACATACACACATATATATTTATA [CACACA_site2504] | 8.5 ± 0.49
56 | AAATTGAAATATTCCTGTACACATTTTGAAAACTTA [XGTACX_site6101] | 8.44 ± 0.38
57 | TATTAAACTAAATGTAGTACATACACAAAAGAAACC [XGTACX_site606] | 9.29 ± 0.51
58 | TGTTTGAATATAATCACACATTTATATAAAAAGTTA [CACACA_site5237] | 8.15 ± 0.46
59 | TCTTTTTGCATGTGTGTGCGCACAAAATACACAAAA [GTGCAC_site9718] | 8.96 ± 0.12
60 | TTATGAAAATATTTTTTTCGTTTGATGTATATGTTT [CACACA_negctrl_site1556] | 8.29 ± 0.49
61 | AAAAAATATAAATATGTAAAAAGAGAAAAAAAAAAG [GTGCAC_negctrl_site9] | 8.71 ± 0.53
62 | TGAAAATGGGAACCGTGTACAGGGCAGTTATAGGGG [XGTACX_site2950] | 9.4 ± 0.59
63 | TATAAACATAAAACCAGTACATATATATTTTTCTTC [XGTACX_site212] | 8.29 ± 0.28
64 | ATATTTAATTCATCATGTACACAAATAAGAAACAAA [XGTACX_site8076] | 8.96 ± 0.23
65 | ATCATTTTGTGTTCAAGTACATAATGTTTTACACAA [XGTACX_site3565] | 8.61 ± 0.4
66 | TACCAAAAAAAAAAAATAATAATAAAAAAAAAAAAA [TGCATGCA_negctrl_site11] | 8.18 ± 0.22

Row | Sequence | gcPBM binding intensity (ln)
67 | AACGAAGCATAAAATGTTATGTATATATATAAATAT [TGCATGCA_negctrl_site304] | 8.49 ± 0.43
68 | GCAAAACATTTTTAAAATAAAAATAATAAAATATAT [CACACA_negctrl_site219] | 8.34 ± 0.39
69 | ATGTGGAAATAGAGCACACATATATATAATATATAT [CACACA_site884] | 8.74 ± 0.36
70 | CATACATTATAAGATACATGCATATATCTGAACATA [TGCATGCA_site797] | 8.8 ± 0.23
71 | ATATATTATATAAAAAGTACTAAAATAGTAAGATGT [XGTACX_site7493] | 8.97 ± 0.45
72 | TATTCATTAAACCATACACACATAATTTTTTTATAA [CACACA_site4618] | 8.24 ± 0.36
73 | GTGTGCCAAATTAGCACACACATATATACATGAATT [CACACA_site7346] | 8.62 ± 0.28
74 | AATGATTTTAAATGAACATAATTTATATTCATAACA [GTGCAC_negctrl_site256] | 8.04 ± 0.42
75 | TGCAAAAAAAAAAAAAAAAAATATATGGAAATATAT [GTGCAC_negctrl_site257] | 8.54 ± 0.19
76 | TTTTCATACACTGCTAGTATATACTACCACTGACAT [GTGCAC_negctrl_site514] | 9.1 ± 0.49
77 | AAACATATATTAAGCACACACAAACAAAAAAACAAA [CACACA_site2549] | 8.87 ± 0.46
78 | ACACATAATATAAAGGTGCTATATTGTATTCATTTT [GTGCAC_site9457] | 8.52 ± 0.33
79 | ACGTATCAATTTATTGGTACACATAAATATATATAT [XGTACX_site5556] | 9.355 ± 0.064
80 | TGATTCATTGATAAGGGTACATTTATAATTATGATA [XGTACX_site6319] | 8.31 ± 0.32
81 | ACATTGAACAAAATAGTAAGCACATATATATATATA [GTGCAC_negctrl_site679] | 10 ± 0.39
82 | AAATTGAGACAACAGGTGCATATAAATATACAGTGT [GTGCAC_site9634] | 9.2 ± 0.028
83 | AAAATGAATAAAAATACACACATATATGTTATTCTC [CACACA_site2671] | 8.3 ± 0.35
84 | AATAATATATATATTACACACTAATTGTATTATATA [CACACA_site448] | 8.27 ± 0.31
85 | CCAACATGCAGACGCACACACAAAAAAAGCATGCAT [CACACA_site74] | 9.36 ± 0.23
86 | ATTTATTTATTTAGCTGTACATTTATACAGAACGAT [XGTACX_site3336] | 8.55 ± 0.41
87 | TTAATACCCGGACACACACACACAAAATAAAATACA [CACACA_site4296] | 8.69 ± 0.49
88 | TAACAATATCTAGATACACACACATATCTCTCAATC [CACACA_site8122] | 8.51 ± 0.6

— the supplement of paper PMC11417369
